# Source: PubChem BioAssay (NCI)
#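 96-well plates; 48 h exposure; 5 concentrations. Endpoints by linear interpolation between flanking doses. Not reached: highest tested concentration assigned. The concentration for 50% growth inhibition is given as GI50. The concentration for full growth arrest is given as TGI.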
# Test system: NCI-H322M lung
# Test: DTP human tumour cell line panel, 48 h
Compound,TGI,GI50
O=C1NC2O[C@H](CNC(=O)c3cc(Br)c[nH]3)CC2(O)N1 (mixture of isomers),> 100 µM,–
O=Cc1ccccc1COC(=O)c1cc(C(=O)OCc2ccccc2C=O)c(C(=O)OCc2ccccc2C=O)cc1C(=O)OCc1ccccc1C=O,> 100 µM,–
COCc1nc2c(OC)c(-c3nc4nc(N5CCN(C)CC5)ccc4[nH]3)cc(OC)c2n1C,55.3 µM,–
COc1ccc(/C=C/c2c(C(=O)/C=C/c3ccccc3)c(C)nc3ccccc23)cc1,4.17 µM,1.9 µM
O=c1c2ccccc2nc(Cc2nc(-c3ccc(Cl)cc3)cs2)n1-c1ccc(Cl)cc1,> 100 µM,–
c1cnn(CN(Cn2cccn2)Cn2cccn2)c1,> 100 µM,–
CC(C)c1c(O)c(O)c2c(c1O)C(=O)C(O)=C1C(C)(C)CCC[C@@]12C,11.1 µM,–
O=C1c2ccsc2C(=O)c2sc(CO)cc21,3.92 µM,–
O=C(N/N=C\C=C\c1ccc([N+](=O)[O-])o1)C(=O)N/N=C\C=C\c1ccc([N+](=O)[O-])o1,> 100 µM,–
CC(=O)ONC(C(=O)C(C)(C)C)C(=O)C(C)(C)C,> 100 µM,–
CCO/C=N\C1=C(C#N)SC2=N/C(=C\c3ccc(OC)cc3)C(=O)N21,> 100 µM,–
CNC(=S)/N=C(\N)N(C)C,> 100 µM,–
CCCCC1Cc2ccccc2-c2nc3ccccc3n21 (centres undefined),33.3 µM,–
CCOC(=O)C1CCN(S(=O)(=O)/N=C2/NC(=O)NC2=C(Cl)Cl)CC1,13.5 µM,2.93 µM
O=c1cc(-c2ccc(Oc3ccccc3)cc2)[nH]c2cc3c(cc12)OCO3,> 100 µM,–
Clc1ccc(C[P+](c2ccccc2)(c2ccccc2)c2ccccc2)c(Cl)c1,27.5 µM,–
Cc1cc(C(=O)Nc2ccc3cc(CN4CCOCC4)ccc3n2)c(C)n1-c1ccccc1,> 100 µM,19.6 µM
CCCC1=C(CC)C(C(=O)Nc2c(C)cccc2C)=NC(S)N1 (centres undefined),> 100 µM,–
N#Cc1[nH]c(=O)n(-c2ccccc2)c1N,> 10 µM,–
C1=Cc2cc3c(c4nccc(c24)N1)OCO3,26.4 µM,–
CCOC(=O)C(=O)Nc1ccccc1CC,> 100 µM,–
CC1(C)OC(=O)N(c2ccccc2)C12C=Cc1cc([N+](=O)[O-])ccc1O2 (centres undefined),> 100 µM,–
CC(=O)Nc1ccc(/C=C/c2ccc(NC(=O)Nc3ccc(/C=C/c4ccc(NC(C)=O)cc4S(=O)(=O)O)c(S(=O)(=O)O)c3)cc2S(=O)(=O)O)c(S(=O)(=O)O)c1,> 100 µM,–
Clc1cc(Cl)c2ns[s+]c2c1Cl,> 100 µM,–

Compound,TGI,GI50
CCOC(=O)C1C(=O)CC1(C)C (centres undefined),> 10 µM,–
CCCc1c(O)nc(Nc2nc3ccccc3[nH]2)[nH]c1=O,> 100 µM,–
Nc1nc(Nc2cccnc2)sc1C(=O)c1ccccc1F,17.8 µM,2.74 µM
O=C(Nc1nnc(-c2ccc(Cl)cc2)o1)C(SC(=S)N1CCOCC1)c1ccccc1 (centres undefined),62.3 µM,–
CC(=O)O[C@H]1C(=O)[C@@]2(C)[C@H]([C@H](OC(=O)c3ccoc3)[C@]3(O)C[C@H](OC(=O)[C@H](O)[C@@H](NC(=O)c4ccccc4)c4ccccc4)C(C)=C1C3(C)C)[C@]1(OC(C)=O)CO[C@@H]1C[C@@H]2O,> 12.5 µM,–
Cc1cc2ncnn2cc1Nc1ncc2c(n1)n(C1CCOCC1)c(=O)n2C,> 100 µM,8.81 µM
CC12OC(C(=O)C13CC3)C1C(=O)c3ccc4c(ccc5ccccc54)c3C(=O)C12 (centres undefined),> 100 µM,23.4 µM
COc1cc(/C=C/c2ccc(OC)c(O)c2)cc(OC)c1,50.4 µM,–
CSc1cc(Cl)c(C)cc1S(=O)(=O)NC(=O)NNc1cccc(C(F)(F)F)n1,> 100 µM,–
COc1cc2c3c(n(CCCN)c(=O)c2cc1OC)-c1ccc(C#N)cc1C3=O,58.6 µM,16.3 µM
CN(C)CC1CCCC(CN(C)C)C1OC(=O)c1ccccc1 (centres undefined),> 100 µM,–
C=C(C)CCN[Si](c1ccccc1)(c1ccccc1)C(C)(C)C,> 100 µM,–
O=C1C2C3C=C4c5ccccc5N(c5ccccc5)C4(C2C(=O)N1c1ccc([N+](=O)[O-])cc1)[C@H]1C(=O)N(c2ccc([N+](=O)[O-])cc2)C(=O)[C@@H]31 (some centres undefined),> 100 µM,–
Cc1cc(N(CCC#N)CCC#N)ccc1/C=C(\NC(=O)/C=C/c1ccccc1)C(N)=O,> 100 µM,–
CC(C)=C[C@H]1CCC2(OCCO2)[C@]1(C)CO,> 100 µM,–
OCC1OC(n2cnc3c2NC=NC[C@H]3O)C(Cl)C1O (some centres undefined),> 100 µM,–
COc1ccc(C(=O)c2cc(C)c(OC)c(C)c2)c(OC)c1O,> 100 µM,0.0693 µM
CC1CCCCNC1=S (centres undefined),> 10 µM,–
O=C(CCc1nc(=S)[nH][nH]1)Nc1ccccc1Cl,> 100 µM,–
C=CCCC1(CC(Sc2ccccc2)P(=O)(c2ccccc2)c2ccccc2)OCCO1 (centres undefined),> 10 µM,–
COc1ccc(-c2nc3ccccn3c2/C=C/C(=O)c2cc(OC)c(OC)c(OC)c2)cc1OC,18.6 µM,2.08 µM
COc1cc2[nH]c3c(c2cc1OC)CCN[C@]31CC[C@]2(CC3c4c(cc(OC)c(O)c42)CCN3C)C[C@H]1OC (some centres undefined),> 100 µM,–
Nc1ccccc1/C(O)=C1/CCOC1=O,> 100 µM,–
CC(C)=C[C@H]1CCC2(OCCO2)[C@]1(C)COCc1ccccc1,> 100 µM,–

Compound,TGI,GI50
COC(=O)C12CC3CC(CC(C(=O)O)(C3)C1)C2,> 100 µM,–
O=C(c1ccco1)N(C(=S)OCCOc1ccccc1)c1ccccc1,50.6 µM,–
CCOC(=O)CNC(=O)N(CC)C12CC3CC(CC(C3)C1)C2,451 µM,–
CCOC(=O)CC(C)C1(C(=O)OCC)CCCCC1=O (centres undefined),> 100 µM,–
O=C1NC(=S)NC(=O)C1C(c1ccc(O)cc1)C1C(=O)NC(=S)NC1=O,> 100 µM,–
O=C1c2ccccc2C(=O)C1(O)c1c[nH]c2ccccc12,> 100 µM,–
COC(=O)C1=CS/C(=C2\S[C@@H]3[C@H](S2)[C@H]2C=C[C@@H]3C2)S1,> 100 µM,–
CN(C)CCCN=c1c2ccccc2n(O)c2ccccc12,> 100 µM,–
O=C1c2cccnc2-c2nc(-c3ccc(Cl)cc3)cc3c2c1nc1ccccc13,65.1 µM,28.1 µM
O=C1/C(=C(/c2ccccc2)N2CCOCC2)Cc2ccccc21,19.6 µM,6.57 µM
CCc1nc2cc(F)c(/C=C/C(=O)NO)cc2c(=O)n1CCc1ccccc1,19.5 µM,0.41 µM
C=C1C(=O)O[C@H]2[C@H]1CC/C(COC(=O)NCCCCNC(=O)OC/C1=C/CC[C@@]3(C)O[C@H]3[C@H]3OC(=O)C(=C)[C@@H]3CC1)=C\CC[C@@]1(C)O[C@@H]21,25.8 µM,12.6 µM
CCOC(=O)c1ccc(N[C@@H]2c3cc4c(cc3C(c3cc(OC)c(O)c(OC)c3)[C@H]3C(=O)OCC32)OCO4)cc1O (some centres undefined),> 91 µM,–
CCOC(=O)C1SC(=Nc2ccc(C)c(C)c2)N=C1C (centres undefined),> 100 µM,–
CC1(C)C[C@@H]2C1CCC1(C)CC2(O)CC[C@H]1O (some centres undefined),> 100 µM,–
CCCN(CCC)C(=O)c1c([N+](=O)[O-])cc(C(F)(F)F)cc1[N+](=O)[O-],> 100 µM,–
CC1=[N+]([O-])c2ccccc2C(=O)C1=O,> 100 µM,–
O=C(N/N=C/c1cc(Br)ccc1O)N/N=C/c1cc(Br)ccc1O,> 100 µM,–
CN(C)CCC1(C2=CCCC2)CC/C(=C\c2ccc(Cl)cc2)C1=O (centres undefined),24.9 µM,–
CCOC(=O)N[C@@H]1C(CC(=O)OC)O[C@H]2OC(C)(C)O[C@H]21 (some centres undefined),> 100 µM,–
CSc1nnc(SC)nn1,> 100 µM,–
CCc1nc(N)nc(N)c1-c1ccc(NC)c([N+](=O)[O-])c1,> 100 µM,–
CN(C)CCNc1ccc(CO)c2oc3ccc(O)cc3c(=O)c12,29.8 µM,–
O=C(/C=C/c1ccc(Cl)c(Cl)c1)c1ccc2ccccc2c1,> 100 µM,–

Compound,TGI,GI50
CC/C=C\C[C@H](O)C/C=C1/C(=O)C=C[C@@H]1C/C=C\CCCC(=O)OC,10.6 µM,2.78 µM
COc1c(C(=O)/C=C/c2ccccc2)c(O)cc2occc12,26.7 µM,13.6 µM
O=C(CC(=O)n1nc(-c2ccccc2)c(N=Nc2ccc(Cl)cc2)c1-c1ccccc1)Nc1ccc(Cl)cc1,> 100 µM,–
c1ccc(CNc2nncc3[nH]cnc23)cc1,> 100 µM,–
COc1ccc2[nH]c3c4[nH]c5ccc(OC)cc5c4c4c(c3c2c1)C(=O)NC4=O,> 25 µM,> 25 µM
c1ccc(Sc2ccc(Cc3nc4cc5ccccc5cc4[nH]3)cc2)cc1,9.85 µM,2.1 µM
COC(=O)C(Cc1nc2ccccc2[nH]c1=O)C(NO)C(=O)Nc1c(Cl)cc([N+](=O)[O-])cc1Cl (centres undefined),> 100 µM,–
O=S(=O)(c1ccc(NC(=S)NC23CC4CC(CC(C4)C2)C3)cc1)N1CCCCC1,> 100 µM,3.31 µM
CCCCNC1CCCCC[C@H]1O (some centres undefined),> 100 µM,–
C/C(=N\Nc1ccc(Cl)cn1)c1ccc2ccccc2n1,> 100 µM,3.43 µM
CCCCCCCCCCCC(=O)OCC(C[As](=O)(O)O)OC(=O)CCCCCCCCCCC (centres undefined),33.8 µM,–
CCC(=O)Oc1ccc2c(c1)c(=O)c1c(NCCCN(C)C)ccc3nnn2c31,15.6 µM,–
O=C1c2ccccc2C(=O)N1CCCCNOCCCN1C(=O)c2ccccc2C1=O,> 100 µM,–
COc1cc2cc3c4cc(OC)c(OC)cc4cc[n+]3c(C)c2cc1OC (tested in a mixture with another compound),> 65.5 µM,–
Nc1nc([O-])c2c(n1)[n+](C1OC(CO)C(O)C1O)cn2CCO (centres undefined),> 100 µM,–
O=C(O)CNS(=O)(=O)c1ccc(NC(=O)c2ccc([N+](=O)[O-])cc2)cc1,> 100 µM,–
CCN(CC)CCSc1c2cc(OC)ccc2nc2ccc(OC)cc12,28 µM,–
NNC(=S)N/N=C(/C(=O)Nc1ccc(Cl)c(Cl)c1)C(C1OC(=O)c2ccccc21)[N+](=O)[O-] (centres undefined),> 100 µM,–
Clc1ccc(-c2cc3nc4ccccc4nc3o2)cc1,> 100 µM,–
Cc1ccc(N=C/C=C(\Nc2ccc(C)cc2)c2ccc(Cl)cc2)cc1,32.2 µM,10.5 µM
COc1cc(Br)cc2cc(-c3cn4c(n3)sc3ccccc34)c(=O)oc12,58.7 µM,–
CC(=O)[C@@H](C)C(=O)N1C(=O)OC[C@@]12[C@@H]1CC[C@@H](C1)C2(C)C,> 100 µM,–
